# Data taken from the supplement of paper PMC4166925.
# ± gives the standard deviation of the averaged measurements. Whole data set: some 33,000 sequences, median “E-score (dimensionless, -0.5 to 0.5)” near -0.049, cut for the highest 2% near 0.37. Some of the results follow.
# System: T1, PmTbr T-box DNA-binding domain (GST fusion)
# T1 sequence: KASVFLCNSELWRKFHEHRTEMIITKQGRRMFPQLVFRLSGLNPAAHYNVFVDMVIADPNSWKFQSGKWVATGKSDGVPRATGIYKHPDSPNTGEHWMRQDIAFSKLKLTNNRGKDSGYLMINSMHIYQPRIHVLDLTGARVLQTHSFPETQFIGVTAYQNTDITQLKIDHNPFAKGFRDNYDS
# Assay: PBM E-score of 8-mer (E-score (dimensionless, -0.5 to 0.5)); Tbr is Tbrain of the sea star Patiria miniata (Pm) or the sea urchin Strongylocentrotus purpuratus (Sp); higher = stronger binding preference; most listed sequences are background and not binding sites
# Details: the construct has about 5 more residues each side
# Procedure, shortened: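 Universal Agilent oligonucleotide arrays, made double-stranded by primer extension, were incubated with 200 nM GST-fused Tbr T-box DNA-binding domain in PBS (pH 7.5). The protein was expressed in BL21 E. coli at 20 °C and purified by glutathione affinity chromatography. After scanning and quantification, the Universal PBM Analysis Suite assigned an enrichment E-score to each ungapped 8-mer, averaged over duplicate arrays.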
row,Sequence,PBM E-score of 8-mer
1,CTTCACAC,0.4785 ± 0.0022
2,ATAGTAGG,-0.216 ± 0.0094
3,AGGTTCAA,-0.252 ± 0.044
4,TACCTAAA,-0.095 ± 0.033
5,GGGCGGAC,-0.106 ± 0.002
6,CTGTGCGC,-0.102 ± 0.077
7,TGGCACAA,0.156 ± 0.017
8,ATAACTGA,0.00612 ± 0.019
9,GTTGAAAC,0.0305 ± 0.025
10,GAGTAATA,-0.115 ± 0.015
11,ACATTACT,0.00117 ± 0.07
12,AGACTCTC,-0.107 ± 0.007
13,CCATTAAC,0.0966 ± 0.0036
14,TCGTGGAA,-0.0067 ± 0.0066
15,CGAGATTA,0.05103 ± 0.00044
16,AAGAAGCC,-0.123 ± 0.078
17,AACGTCAT,-0.148 ± 0.028
18,AGTTAGGC,-0.0248 ± 0.0073
19,AGCATCAA,-0.0566 ± 0.017
20,ACGTCCGG,-0.218 ± 0.018
21,GGGCTTTA,-0.191 ± 0.037
22,CACTTGTC,0.402 ± 0.0079
23,ACGCTGAA,-0.147 ± 0.063
24,TAACTCCA,-0.0323 ± 0.0018
25,GCGCCTCC,0.203 ± 0.042

row,Sequence,PBM E-score of 8-mer
1,CTAGCCGA,0.0265 ± 0.0029
2,GTCCAACA,0.198 ± 0.045
3,CTTATGGC,-0.0928 ± 0.041
4,AAGACCGT,-0.0844 ± 0.049
5,AGTCCCGA,-0.181 ± 0.05
6,CTCGCTGC,0.0611 ± 0.026
7,ACCTAAGG,0.117 ± 0.074
8,ATGGGATG,0.00088 ± 0.047
9,CTGGCACA,0.241 ± 0.0048
10,ATTTTCGC,0.278 ± 0.036
11,AATAGCAC,0.325 ± 0.023
12,GCGTAGTA,-0.206 ± 0.003
13,CAAATGAC,-0.0464 ± 0.045
14,AACTCAAC,-0.0361 ± 0.029
15,GCCAGGCC,-0.201 ± 0.02
16,GTCATCAA,0.00227 ± 0.021
17,AAGCGAGA,0.0275 ± 0.00037
18,ACCTCGGA,0.15 ± 0.011
19,GACCCGGC,-0.22 ± 0.057
20,GCGGCACA,0.122 ± 0.027
21,CACGTTGA,0.29 ± 0.072
22,GGTTCGGA,-0.266 ± 0.021
23,TCTACAGA,-0.188 ± 0.069
24,AGCAAACG,-0.108 ± 0.084
25,ATGAGCGA,0.12 ± 0.015

row,Sequence,PBM E-score of 8-mer
1,ATTTAACC,-0.254 ± 0.013
2,GTTTAGCA,0.209 ± 0.019
3,AACAACTA,0.232 ± 0.0059
4,TCCAGCGA,-0.0506 ± 0.064
5,CGAGGAGC,-0.0722 ± 0.028
6,GCAACTAC,0.0449 ± 0.047
7,CACGACTA,-0.0119 ± 0.023
8,GCTAGCCA,-0.0642 ± 0.047
9,GTTACCGA,0.115 ± 0.019
10,CTCTATGC,-0.142 ± 0.027
11,TAGAACAA,-0.174 ± 0.078
12,CACGGGCC,-0.211 ± 0.0096
13,CGCGTATA,-0.0467 ± 0.058
14,CGGATTAA,-0.0265 ± 0.037
15,GTCCGAAC,-0.124 ± 0.011
16,AGGGGCAC,-0.267 ± 0.066
17,CACAAACG,0.116 ± 0.011
18,CCGTGGAC,-0.0146 ± 0.033
19,CGGGATAA,0.105 ± 0.043
20,AGTTCAGG,-0.237 ± 0.059
21,AGTGGACA,0.0305 ± 0.022
22,ATCTAGCG,0.129 ± 0.017
23,CCTTTGGC,0.0109 ± 0.046
24,CACTAGAA,0.0919 ± 0.016
25,CGAATTTC,0.0127 ± 0.024

row,Sequence,PBM E-score of 8-mer
1,CACCTCCG,0.447 ± 0.0095
2,CCGGCGGC,-0.0645 ± 0.0043
3,CACGACAC,0.314 ± 0.0061
4,CCACAAGA,-0.0528 ± 0.056
5,ATAGCATG,-0.0232 ± 0.021
6,GGATAAAA,-0.2119 ± 0.0021
7,AGACACAC,0.174 ± 0.041
8,CGAACCCC,-0.137 ± 0.043
9,ATGTTGTC,0.237 ± 0.041
10,AGGTGCGC,0.293 ± 0.023
11,CTGAACCC,-0.229 ± 0.051
12,CCAACGAA,0.00483 ± 0.048
13,GTACTCCA,-0.205 ± 0.026
14,GAATTCTA,-0.194 ± 0.041
15,GAAGTTCC,-0.252 ± 0.073
16,GCGACAAC,0.363 ± 0.023
17,AAGTAACC,-0.0622 ± 0.014
18,GCCTAATA,-0.237 ± 0.034
19,ATGCGTCA,0.161 ± 0.013
20,TAGACCGA,-0.208 ± 0.12
21,CCTCATTC,0.113 ± 0.0052
22,CTATAAAA,-0.13 ± 0.019
23,ATCGTATG,0.14 ± 0.033
24,CCTTCCCA,-0.209 ± 0.0085
25,AGTGGGAT,-0.0452 ± 0.049

row,Sequence,PBM E-score of 8-mer
1,AAGACCCA,-0.102 ± 0.043
2,AAATAACA,0.0689 ± 0.096
3,GCACACGC,0.074 ± 0.0021
4,CTAATACA,-0.025 ± 0.027
5,TAATCTAA,-0.195 ± 0.051
6,GATACGGC,-0.26 ± 0.04
7,CCAGAAGC,-0.05022 ± 0.0004
8,ATAGCCCC,-0.0885 ± 0.02
9,GCCAAGCA,-0.0191 ± 0.018
10,CAGATCAA,-0.142 ± 0.082
11,CCATCAAA,-0.251 ± 0.023
12,GTATCATA,-0.11 ± 0.025
13,AAGCCTTC,-0.134 ± 0.025
14,CTGGACTC,-0.211 ± 0.064
15,ACGTCAGA,0.216 ± 0.034
16,CGGTGAAG,-0.0517 ± 0.041
17,CCATCTCA,0.00782 ± 0.0042
18,CAAGTCGC,0.255 ± 0.025
19,ACGAGCAC,-0.214 ± 0.049
20,ACCTTCAA,-0.061 ± 0.055
21,AGAAATTG,-0.00433 ± 0.049
22,CCATCGCA,0.0546 ± 0.056
23,GGCCTATA,-0.309 ± 0.022
24,CTACTCTC,-0.145 ± 0.014
25,ATACGCTC,-0.274 ± 0.025

row,Sequence,PBM E-score of 8-mer
1,AATTTTAG,0.0676 ± 0.077
2,AGTGCGGC,0.131 ± 0.023
3,CGTTGGTC,-0.0238 ± 0.016
4,CCTTTCGC,0.294 ± 0.004
5,ACTCCTAT,-0.108 ± 0.057
6,CACCGTAG,0.085 ± 0.031
7,CGCCCGCG,0.0694 ± 0.093
8,CGGGTACA,0.0659 ± 0.028
9,CGTTGGTA,-0.0221 ± 0.009
10,CACATGTA,0.0564 ± 0.0057
11,CCCAGTTA,-0.118 ± 0.0092
12,ACCGCCCG,0.0764 ± 0.061
13,CTGTATTA,-0.151 ± 0.032
14,AGTCTCAT,-0.0455 ± 0.027
15,AAGTCGGG,-0.0479 ± 0.11
16,GACTTTGA,-0.173 ± 0.038
17,CCCAGTGA,-0.125 ± 0.033
18,ATAATATC,-0.0229 ± 0.0089
19,CTAGGGAA,-0.181 ± 0.0033
20,CTATTGGA,-0.164 ± 0.013
21,CTCGACAC,0.387 ± 0.029
22,ACATGCAC,0.0987 ± 0.024
23,CCGTAGGC,-0.193 ± 0.055
24,GACAGCCC,-0.00908 ± 0.0068
25,GTCACCGA,0.127 ± 0.041

row,Sequence,PBM E-score of 8-mer
1,GGATAGTA,-0.0109 ± 0.031
2,CTGATTAC,-0.168 ± 0.037
3,TATTAGCA,0.17 ± 0.06
4,CCCCATCG,-0.304 ± 0.061
5,CGGACATA,-0.11 ± 0.087
6,ATACGGCC,-0.391 ± 0.012
7,GGTCGATA,0.0375 ± 0.069
8,CGACTCCA,-0.0615 ± 0.08
9,GAGATGAC,0.0523 ± 0.043
10,GCCAAATA,0.0324 ± 0.0096
11,GTGGTGCA,0.0543 ± 0.079
12,GCCGATCC,-0.178 ± 0.01
13,AACCAGAC,-0.263 ± 0.1
14,CCATCTGC,0.011 ± 0.019
15,AGTGCAAC,0.238 ± 0.0035
16,GTGCTCGA,-0.104 ± 0.0041
17,GTGTGGTA,0.183 ± 0.028
18,AAACGCAA,-0.101 ± 0.045
19,GAGCATCC,-0.164 ± 0.042
20,CGCAATAC,0.0143 ± 0.042
21,CCGTCCAG,-0.169 ± 0.041
22,CCGCGTAG,-0.125 ± 0.067
